Test results reported in the supplement of paper PMC3334620.
In all, about 33,000 sequences were measured (“E-score (-0.5 to 0.5)”: median about -0.035, highest 2% from about 0.35 on). The list shows a part of the results.

molecular target: T1, Pdr3 (UniProt P33200); assay: PBM E-score (8-mer binding enrichment) (E-score (-0.5 to 0.5)); higher = stronger / more preferred TF binding; most listed sequences are background and not binding sites; conditions: protein concentration: 200 nM; construct: GST-full length
T1 sequence: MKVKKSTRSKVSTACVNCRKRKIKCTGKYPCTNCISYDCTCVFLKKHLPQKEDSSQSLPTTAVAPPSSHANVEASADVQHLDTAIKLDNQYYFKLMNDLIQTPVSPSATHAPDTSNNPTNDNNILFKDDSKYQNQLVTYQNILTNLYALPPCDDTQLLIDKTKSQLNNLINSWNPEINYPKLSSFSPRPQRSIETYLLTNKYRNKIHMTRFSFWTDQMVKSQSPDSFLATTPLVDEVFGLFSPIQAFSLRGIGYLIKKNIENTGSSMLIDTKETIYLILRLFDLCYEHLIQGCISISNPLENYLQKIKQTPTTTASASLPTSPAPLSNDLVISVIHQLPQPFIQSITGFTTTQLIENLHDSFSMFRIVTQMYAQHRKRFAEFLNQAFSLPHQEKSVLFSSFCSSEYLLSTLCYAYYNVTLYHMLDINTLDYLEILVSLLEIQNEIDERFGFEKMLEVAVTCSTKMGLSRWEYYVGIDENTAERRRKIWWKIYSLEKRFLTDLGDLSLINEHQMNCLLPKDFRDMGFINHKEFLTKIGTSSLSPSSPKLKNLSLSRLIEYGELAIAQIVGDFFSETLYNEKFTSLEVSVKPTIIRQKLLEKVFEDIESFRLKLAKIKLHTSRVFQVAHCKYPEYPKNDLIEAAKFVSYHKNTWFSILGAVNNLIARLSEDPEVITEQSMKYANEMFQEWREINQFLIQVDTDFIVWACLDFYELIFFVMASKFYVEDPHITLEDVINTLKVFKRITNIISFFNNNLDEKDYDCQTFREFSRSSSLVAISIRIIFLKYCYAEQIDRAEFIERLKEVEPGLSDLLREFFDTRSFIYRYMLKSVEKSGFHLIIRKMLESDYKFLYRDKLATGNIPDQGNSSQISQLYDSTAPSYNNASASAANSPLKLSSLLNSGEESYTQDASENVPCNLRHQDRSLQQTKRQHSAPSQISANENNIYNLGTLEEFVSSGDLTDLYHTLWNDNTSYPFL
Method in brief: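 For each ungapped eight-base word taken together with its reverse complement, the Universal PBM Analysis Suite assigned an E-score. Binding data came from GST-tagged yeast transcription factors, applied at about 100-200 nM, on universal all-10-mer Agilent arrays made double-stranded by primer extension. Fluorescent anti-GST marked bound protein, and scans were normalised with masliner.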

Row | Sequence | PBM E-score
1 | TGTGTGAA | -0.0422
2 | AGCAATAC | -0.0729
3 | ACTTTCCG | 0.417
4 | ATCAATTA | 0.131
5 | AATCTTAT | -0.0413
6 | AACATGTA | 0.0311
7 | TCTACAAA | -0.288
8 | AATGTAGT | -0.0844
9 | ACTTGAGA | -0.199
10 | CATTGGTC | -0.0762
11 | CACAAATC | -0.0493
12 | AACGAAAG | -0.0735
13 | GGGGTGGA | 0.0716
14 | AAAGTTCC | 0.2
15 | GTTTTCGA | -0.0845
16 | CACCTCTC | -0.217
17 | CTAAGATA | -0.0473
18 | CAGTTCGG | 0.204
19 | ATGTGTCG | -0.0408
20 | CGTGAGCC | -0.184
21 | GAGCCGGC | 0.324
22 | TCATGAAA | 0.0318

Row | Sequence | PBM E-score
23 | AGTTTATG | -0.105
24 | ATTCCCCG | 0.28
25 | CACTGCTG | -0.185
26 | CATTTGAG | 0.041
27 | AATTTCAT | -0.0192
28 | CGGGACCA | 0.264
29 | AAAAAGCG | 0.102
30 | ACCGACAA | -0.0101
31 | GGGGCTCA | -0.117
32 | CACTTACA | -0.0745
33 | CCCTATCC | 0.0847
34 | AAAGAAAT | -0.0304
35 | GCTGTCGA | 0.0218
36 | CAACAGTA | -0.12
37 | AATATTCA | 0.0722
38 | AAGTCCCA | -0.137
39 | CTGAGTGA | 0.179
40 | AGTAGATC | -0.0054
41 | GAGTTCCC | 0.163
42 | AGAGTATA | -0.259
43 | ATGAGCCG | -0.0142
44 | ACCTTCTG | 0.0416

Row | Sequence | PBM E-score
45 | AGAGGAAT | -0.259
46 | CAGTTCTC | 0.116
47 | GATGCGTA | -0.169
48 | CAAGCTTG | -0.0679
49 | ATGCCCTG | -0.0979
50 | CTATCTCA | 0.0461
51 | AGACTTTC | -0.174
52 | AAACCCCC | -0.128
53 | ACATAATC | 0.0294
54 | GTGTACTA | -0.162
55 | GTCGGAAA | 0.416
56 | ATTCTACG | -0.0335
57 | GCGCCGCC | 0.299
58 | GTAAGGTA | -0.132
59 | ACAGCGCC | 0.127
60 | AAGACCTA | 0.0684
61 | CTCGGGTA | 0.111
62 | ACAGGTCA | -0.0795
63 | CGCCCGTC | 0.338
64 | AATACGGG | -0.0463
65 | GGTCTATA | -0.151
66 | GTTGGGCA | -0.0124

Row | Sequence | PBM E-score
67 | CTTGCCAC | 0.0154
68 | AGTGCTTA | -0.154
69 | AGTGGGCC | -0.241
70 | GGTATTGA | 0.0445
71 | GCCTTTAC | -0.106
72 | AATACACT | -0.127
73 | AAGTAGGT | -0.15
74 | GTGTAAAA | -0.167
75 | CTCCTATC | -0.091
76 | ATGCGGGA | 0.293
77 | ATTTTAAA | 0.128
78 | ACGTTTTA | -0.16
79 | GACTATAC | -0.028
80 | TACCTTAA | -0.0861
81 | CAGTCAGA | -0.208
82 | CCGGGGGC | 0.235
83 | ACAGAGCT | -0.292
84 | CCGTATAA | 0.223
85 | AAATCGTT | -0.0434
86 | CCCTGCCA | -0.017
87 | CCAGGCAG | -0.129
88 | ACAAATAG | 0.0222

Row | Sequence | PBM E-score
89 | CACCCCAA | 0.134
90 | CCCGTTTA | 0.151
91 | GGACCTCC | 0.103
92 | ATTCTCCC | -0.00424
93 | CAGTCTGA | -0.142
94 | CGGTCGAA | 0.0584
95 | GCATTAGC | -0.0807
96 | ATTAAGAA | 0.00252
97 | GGGTACCA | -0.22
98 | ATCGCCTA | 0.119
99 | ACAGAGTA | -0.232
100 | GAGAAATA | 0.0887
101 | AATAAGGC | -0.236
102 | ATCCAGAA | -0.0661
103 | CACTTCAC | -0.0435
104 | AGCGCAAC | 0.127
105 | CGGATTGC | 0.31
106 | CTTTGAAC | -0.174
107 | AAGTCAAG | -0.166
108 | ATGTTCTG | -0.095
109 | CCATTCCG | 0.425
110 | TCAAACAA | -0.11
